The source gives no read counts; variants with many changes may rest on few reads.
B1: LINE1-mini (parent)
chain: GGCAGAGCUCAACACAGCGUGGCAAAGUGGCUGUGGCUAGACUGCC

Variants of: B1
Assay: self-cleavage, relative activity (ratio to wild type); higher = more cleavage; in vitro, sequencing; the parent is a self-cleaving ribozyme

Row | Variant | self-cleavage
1 | G7C C18A G29U G36U | 0.13
2 | G7C U9A G21U G40C | 0.02
3 | G7U A14G G21A G40A | 0.08
4 | G7C G19U G29C A41G | 0.05
5 | G7U A26U C37U | 0.01
6 | G7U A14G G36C | 0.05
7 | G7U A14C G17U C18A G30U G44C | 0.08
8 | G7U A11G U32A U34G | 0
9 | G7U A24U G29C C31G | 0.03
10 | G7U C10G G17A U28C G35U | 0.01
11 | G7U C13U C18U U32A C45U | 0.28
12 | G7C G21C C31U C37A U38G | 0
13 | G7C C13U G44U | 0.04
14 | G7U C8A G35U G40A | 0.02
15 | G7U C8A C18U G29A C31U G35U | 0.37
16 | G7C G33U G44C C45A | 0.15
17 | G7U A11C A24C U43C | 0.01
18 | G7U C13G A16G U20A G22U G35A C42A | 0.02
19 | G7C C18A A39U | 0.13
20 | G7U A11G C13U G22U U28G U34G | 0.01
21 | G7U A25C G44U | 0.07
22 | G7C G22U G27C A39C C45G | 0.02
23 | G7U C8U A16U G27A A39U | 0.15
24 | G7C C23A U43A | 0.01

Row | Variant | self-cleavage
25 | G7U A26C G29A | 0.06
26 | G7U A25G A41C G44C | 0.16
27 | G7U C8U A26G A39C | 0.16
28 | G7U C13U G17A C23U | 0.09
29 | G7C C18G C31A | 0.02
30 | G7C C23G U32A | 0.08
31 | G7U C8U C10A | 0.04
32 | G7U C8G A14G C18A U32A G40C | 0.02
33 | G7C U20A G30U | 0.07
34 | G7U C8A A12C C23U | 0.06
35 | G7U C8U U9A G19C | 0.06
36 | G7C U34G C42G | 0.01
37 | G7U A11U C46U | 0.01
38 | G7U A16C G44U | 0.33
39 | G7U C8U G44A | 0.57
40 | G7C U9C A14G G22U | 0.07
41 | G7C G27U U32A G35A | 0.03
42 | G7C G27U U43A | 0.04
43 | G7C U9G U28G C46U | 0.15
44 | G7U A16U U32A U38G G40C | 0.06
45 | G7U C8G U38C | 0.09
46 | G7C U9G C10G | 0.01
47 | G7U A12G A26U | 0.03
48 | G7C C31U C42A C45G | 0.02

Row | Variant | self-cleavage
49 | G7U C8G A12C A26U G44U | 0.02
50 | G7C G21A A39U | 0.11
51 | G7U A12U G21C G22U C45G | 0.06
52 | G7U A11C A14U C18U G22C G27U U32C | 0.01
53 | G7U C10A G17A U43A | 0.04
54 | G7C G36A G40U | 0.69
55 | G7U C8G G19A | 0.78
56 | G7U C8A A39U | 0.07
57 | G7C U9G C15G G33A U34G G36A | 0.06
58 | G7C G17A G30A U34G U38A | 0.01
59 | G7U A11G G29C C37U | 0.01
60 | G7U A26C G27U U32G | 0.17
61 | G7U A11G A14G A26U | 0.03
62 | G7C C31A A39G | 0.13
63 | G7C C15U A16G | 0.05
64 | G7U A24G G27A A41U | 0.13
65 | G7C U20G A25G | 0.06
66 | G7C U20G G36C | 0.04
67 | G7C G22C C31U | 0.04
68 | G7U C10A A11U | 0.04
69 | G7C G19C C45G | 0.06
70 | G7C C18U G27U G30U | 0.04
71 | G7C U20C A41U C45U | 0.09
72 | G7U A26U U34A G36A | 0.06

Row | Variant | self-cleavage
73 | G7C G27U G35C G40U | 0.03
74 | G7C C13U G22U U38C | 0.17
75 | G7U C8U G30U | 0.26
76 | G7C C31U G33A G35U | 0.1
77 | G7C U9A A11U G44C | 0.02
78 | G7U A24G G35U G36U | 0.23
79 | G7C U28C C46G | 0.04
80 | G7U A12C C42G | 0.01
81 | G7U C8A U43A | 0.09
82 | G7C G22C C42A | 0.12
83 | G7U C8A U20C U38A | 0.09
84 | G7C C23A A39G G40A C46A | 0.01
85 | G7C C15A C23U G35C C42A | 0.12
86 | G7C U28G C45U | 0.03
87 | G7U C13A C15A C18U U32C C46U | 0.09
88 | G7U C10A A26U U32C G35A | 0.01
89 | G7U A11C G29A U32A | 0.02
90 | G7U C10A G17U C18A | 0.03
91 | G7U C13G C18A A26U G35A U38A A41U C46U | 0.03
92 | G7U C10A G40U | 0.04
93 | G7C C23U G40A U43C | 0.07
94 | G7U A11U A16U C45U | 0.02
95 | G7U A16C G17A G19A C23U C31G | 0.01
96 | G7C U9A U20C G29C U32C C37G | 0.01

Row | Variant | self-cleavage
97 | G7U C8G C15U C23U G33C | 0.09
98 | G7U A26C U34A A41G C42G | 0.15
99 | G7U C10G G21C G33C G40U | 0.02
100 | G7C C23G A39U | 0.04
101 | G7C C15U C31G G36U A39G | 0.02
102 | G7U A14C C23G G35C | 0.08
103 | G7U C8G G17C C46A | 0.06
104 | G7C C18A A26U U32G | 0.04
105 | G7C C18A G44A | 0.17
106 | G7U C8U G36U G40C | 0.15
107 | G7C G19A G27U | 0.12
108 | G7U C8A A24C G30A | 0.09
109 | G7C G22U G44U | 0.07
110 | G7U C10A G27C | 0.04
111 | G7C C13G G22A | 0.1
112 | G7C C15A G19A G21C G33U G44A | 0.09
113 | G7U A16G U20A | 0.1
114 | G7C G30U A41C | 0.06
115 | G7C U9G A11C G30A | 0.01
116 | G7U A12G G22U | 0.01
117 | G7U C13A G30A | 0.13
118 | G7C U32A G36U | 0.33
119 | G7U A11U A16G C18A A41U G44C | 0.06
120 | G7C C18A C23A C46A | 0.06

Row | Variant | self-cleavage
121 | G7C G17A C23U | 0.18
122 | G7C C23A C31G | 0.01
123 | G7U A11G C23U G30A C31U C42A C45G C46U | 0.01
124 | G7C G17C G30U | 0.11
125 | G7U A12U G35A C46U | 0.08
126 | G7U C13G G33U | 0.04
127 | G7U A16G U43A | 0.09
128 | G7C G27C C31A C37G G40C U43C | 0.01
129 | G7C G21U G36C | 0.04
130 | G7C C23A U34G | 0.04
131 | G7U C10G U20C G33C | 0.04
132 | G7U A12U A24G A26G A41G | 0.02
133 | G7U C8A U32G G40C | 0.18
134 | G7C U9G G21U G44U | 0.03
135 | G7U C10G A12U C18A G36C | 0.01
136 | G7C G19U G22A C31A U38G | 0.01
137 | G7U C10U G19C G21U G40A | 0.01
138 | G7U A14C C31U G35A | 0.01
139 | G7C U20C U34A U43A | 0.01
140 | G7U A25G G29C U32A C46U | 0.04
141 | G7U A16C C23U G44U | 0.24
142 | G7U A24C U28A G30A | 0.01
143 | G7U C8A A11C U38C | 0
144 | G7C G29A A39C | 0.03

Row | Variant | self-cleavage
145 | G7C G33C C46U | 0.03
146 | G7U A12U G33C U34C | 0.07
147 | G7U A25C C37G | 0
148 | G7C C31A U32A | 0.1
149 | G7C G29A G30C | 0.2
150 | G7U C8A A11C A24G C31U U34A C46A | 0.01
151 | G7U C10A C23G C46U | 0.01
152 | G7U A24G C42A C46G | 0.47
153 | G7C G22A C31A U32G | 0.04
154 | G7U C13A A26G G30U U34A | 0.05
155 | G7U A11U G22C | 0.02
156 | G7U A16G G44A | 0.1
157 | G7C C31G G33A C37G | 0.02
158 | G7C G29A C37A | 0.02
159 | G7C U20G C42A U43G | 0.02
160 | G7U A11U G22U A39U C46G | 0.01
161 | G7U A11U C15U | 0.02
162 | G7C U9A C13U | 0.04
163 | G7C C23A G27U U32A G35U | 0.04
164 | G7C C13U G19C U28G C42G | 0.03
165 | G7C C15A G27U A39C | 0.04
166 | G7U A12G U28A U43C | 0.01
167 | G7U C8G U20A G29A | 0.2

From the RNAGym collection of RNA variant scans (doi:10.7554/elife.90254)
